{"source": "PubChem BioAssay AID540317", "about": "(National Center for Advancing Translational Sciences (NCATS), 2011)", "note": "Hit rate of the full screen: of about 390,000 compounds, about 2,200 (0.56%) were called active. This list was built around the results that the source calls inconclusive (neither active nor inactive); the mix of calls is not that of the screen. Calls come from the whole dose curve; as a rule, active = well fitted inhibition curve with a large enough effect; inconclusive = small, poorly fitted or top-dose-only effect; inactive = no such curve, though single readings can be large or run the other way. Potencies of inconclusive entries are doubtful fits and often do not repeat. Potency is the fitted concentration of half-maximal effect; tags give direction and shape of the fitted curve.", "data": [{"target": "Chromobox protein homolog 1 (Homo sapiens) (UniProt P83916)", "sequence (P83916 whole entry, looked up)": "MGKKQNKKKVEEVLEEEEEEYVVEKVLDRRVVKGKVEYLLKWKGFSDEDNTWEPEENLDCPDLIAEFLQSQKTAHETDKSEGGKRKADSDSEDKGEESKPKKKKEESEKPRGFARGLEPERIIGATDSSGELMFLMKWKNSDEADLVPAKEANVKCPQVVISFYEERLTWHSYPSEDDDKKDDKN", "assay": "HTS for Inhibitors of HP1-beta Chromodomain Interactions with Methylated Histone Tails; note: nearly all actives have a fitted effect of over 70% in size", "conditions": "AlphaScreen HP1-beta / biotin-H3K9me3 peptide binding; series mostly up to 114 µM", "how_it_was_run": "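Compound inhibition of the preformed complex between 50 nM HP1-beta and 50 nM biotinylated H3K9me3 peptide was read by AlphaScreen. Buffer was PBS pH 7.4 with 0.01% Tween-20. Incubations ran 30 min at room temperature, with 10 ug/mL donor/acceptor beads.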", "values": [{"smiles": "CCn1c2ccccc2c2cc(N)ccc21", "Potency": "inconclusive: 39.8 µM [inhibitor, partial curve]"}, {"smiles": "Oc1ccc2c(c1)C1CCCC1(N1CCOCC1)O2", "note": "(stereo unspecified)", "Potency": "inconclusive: 89.1 µM [inhibitor, single point]"}, {"smiles": "CC1CCCCC1NC(=O)COC(=O)c1c2c(nc3ccccc13)/C(=C\\c1ccco1)CC2", "note": "(stereo unspecified)", "Potency": "inconclusive: 22.4 µM [inhibitor, full curve]"}, {"smiles": "Cc1ccc(C(C)C)cc2c(C)ccc1-2", "Potency": "active: 22.4 µM"}, {"smiles": "COc1ccc(CNC(=O)c2cccc(N3CCCS3(=O)=O)c2)cc1OC", "Potency": "inactive"}, {"smiles": "COc1ccc2c(c1)C(=NNc1ccc(C(=O)O)cc1)c1cc(OC)ccc1-2", "Potency": "inconclusive: 35.5 µM [inhibitor, single point]"}, {"smiles": "O=C(NC(=S)Nc1cc([N+](=O)[O-])ccc1O)c1ccc2c(c1)OCO2", "Potency": "inconclusive: 35.5 µM [inhibitor, partial curve, poor fit]"}, {"smiles": "C/C(=N/Nc1ccc([N+](=O)[O-])cc1)c1c[nH]c2ccccc12", "Potency": "inconclusive: 50.1 µM [inhibitor, partial curve]"}, {"smiles": "CC(=O)Nc1nc(C(=O)O)cs1", "Potency": "inconclusive: 50.1 µM [inhibitor, partial curve]"}, {"smiles": "O=C(Nc1ccccc1N1CCCC1)c1ccccc1Cl", "Potency": "inactive"}, {"smiles": "COc1cccc2c1C(=N)c1c(O)c3c(c(O)c1C2=O)CC(O)(C(C)=O)CC3OC1CC(N)C(O)C(C)O1", "note": "(stereo unspecified)", "Potency": "inconclusive: 56.2 µM [inhibitor, partial curve, poor fit]"}, {"smiles": "COc1ccc(-c2cc(OC(=O)c3ccccc3)c3c(C)oc(C)c3c(=O)c2)cc1OC", "Potency": "inconclusive: 15.8 µM [inhibitor, partial curve, poor fit]"}, {"smiles": "Cc1ccc(Cl)cc1N1CCN(C(=O)c2ccc3c(c2)N(Cc2ccccc2F)C(=O)c2ccccc2S3=O)CC1", "note": "(stereo unspecified)", "Potency": "inactive"}, {"smiles": "Cc1nn(-c2ccc([N+](=O)[O-])cc2)c(N)c1-c1ccccc1", "Potency": "inconclusive: 70.8 µM [inhibitor, partial curve]"}, {"smiles": "C[C@H](C(=O)OCO/N=[N+](\\[O-])N1CCCC1)c1cccc2ccccc12", "Potency": "inactive"}, {"smiles": "Cc1cc(C)cc(-n2c(C)nc3cc(C(=O)NCc4ccc(F)cc4)ccc32)c1", "Potency": "inactive"}, {"smiles": "O=C(O)CCN1C(=O)/C(=C\\c2ccc(OCc3ccccc3)c(OCc3ccccc3)c2)SC1=S", "Potency": "inconclusive: 14.1 µM [inhibitor, full curve]"}, {"smiles": "c1ccc(-c2nc3nonc3nc2-c2ccccc2)cc1", "Potency": "inconclusive: 10 µM [inhibitor, single point]"}, {"smiles": "CCC(C)NC(=O)c1ccc2c(c1)N(Cc1ccccc1F)C(=O)c1ccccc1S2=O", "note": "(stereo unspecified)", "Potency": "inactive"}, {"smiles": "CCc1c(C(=O)Nc2ccccc2)c(C)[nH]c(=S)c1C#N", "Potency": "inconclusive: 25.1 µM [inhibitor, full curve, poor fit]"}, {"smiles": "CN(C)c1ccc(CNC(=O)c2cccc(NC(=O)N3CCSc4ncccc43)c2)cc1", "Potency": "inactive"}, {"smiles": "CN1CCN(/N=C/c2ccc(-c3ccc([N+](=O)[O-])cc3Cl)o2)CC1", "Potency": "inconclusive: 44.7 µM [inhibitor, partial curve]"}, {"smiles": "COCCNC(=S)Nc1ccc(N2CCOCC2)c(S(=O)(=O)Nc2ccccc2OC)c1", "Potency": "inconclusive: 5.01 µM [inhibitor, partial curve, poor fit]"}, {"smiles": "Cc1ccc(C2(C)NC(=O)N(CC(=O)NNC(=O)c3ccoc3C)C2=O)cc1", "note": "(stereo unspecified)", "Potency": "inactive"}, {"smiles": "Cc1cccnc1NC(=S)NCCc1ccccc1", "Potency": "inconclusive: 15.8 µM [inhibitor, partial curve, poor fit]"}, {"smiles": "COc1ccc(/C=C/CN2CCN(Cc3ccc(F)cc3)C(CCO)C2)cc1", "note": "(stereo unspecified)", "Potency": "inactive"}, {"smiles": "CCOC(=O)c1sc2ccccc2c1S(=O)(=O)Nc1ccc(CC)cc1", "Potency": "inactive"}, {"smiles": "N#Cc1ccccc1NC(=O)CNc1ccccc1N1CCCCC1", "Potency": "inactive"}, {"smiles": "CCOc1cc(-c2noc(N)c2C#N)cc(OCC)c1OCC", "Potency": "inconclusive: 35.5 µM [inhibitor, single point]"}, {"smiles": "Cc1cc(-c2nc3ncccc3o2)ccc1NC(=O)COc1ccccc1C", "Potency": "inactive"}, {"smiles": "COc1cccc(NC(=O)n2ncc3c(C)cccc32)c1", "Potency": "inactive"}, {"smiles": "COc1ccc(CCN2C(=O)CC(C(N)=O)SC2=Nc2ccccc2)cc1", "note": "(stereo unspecified)", "Potency": "inactive"}, {"smiles": "FC(F)(F)c1ccccc1CN1CCN(C2CCCCCC2)CC1", "Potency": "inconclusive: 22.4 µM [inhibitor, single point]"}, {"smiles": "O=C(Nc1nnc(Cc2ccccc2)s1)C1CCN(C(=O)c2ccco2)CC1", "Potency": "inconclusive: 25.1 µM [inhibitor, full curve]"}, {"smiles": "CC(C)(C)c1csc(NC(=O)Cn2cnc3ccccc3c2=O)n1", "Potency": "inconclusive: 12.6 µM [inhibitor, full curve]"}, {"smiles": "NC(=S)n1[nH]c(-c2ccc([N+](=O)[O-])cc2)c(N=Nc2cccc([N+](=O)[O-])c2)c1=O", "Potency": "inconclusive: 20 µM [inhibitor, full curve]"}, {"smiles": "S=c1nc(-c2ccc(Cl)cc2)[nH][nH]1", "Potency": "inconclusive: 28.2 µM [inhibitor, partial curve, poor fit]"}, {"smiles": "CC(C)N(Cc1ccccc1)C(=O)COC(=O)c1cnc(Cl)c(Cl)c1", "Potency": "inactive"}, {"smiles": "COc1ccc2c(c1)c(C(=O)N/N=C/c1ccc(Br)cc1)c(C)n2C", "Potency": "inactive"}, {"smiles": "CCOc1ccc(OCc2cccc(C(=O)Nc3ccc(CN4CCCCC4)cc3)c2)cc1", "Potency": "inconclusive: 28.2 µM [inhibitor, partial curve, poor fit]"}, {"smiles": "O=[N+]([O-])c1cccnc1N1CCN(Cc2ccc3c(c2)OCO3)CC1", "Potency": "inconclusive: 70.8 µM [inhibitor, partial curve]"}, {"smiles": "S=C(c1ccc(N2CCCC2)c(Br)c1)N1CCCCC1", "Potency": "inconclusive: 44.7 µM [inhibitor, partial curve]"}, {"smiles": "O=C1CC(C(=O)N2CCN(c3ccccc3Cl)CC2)CN1Cc1ccccc1", "note": "(stereo unspecified)", "Potency": "inactive"}, {"smiles": "COc1ccc(CN2CCN(Cc3ccccc3C(F)(F)F)CC2)c(OC)c1", "Potency": "active: 28.2 µM"}, {"smiles": "COc1ccc(CNC(=O)C2CCCN(C(=O)N3CCOc4ccccc43)C2)cc1", "note": "(stereo unspecified)", "Potency": "inactive"}, {"smiles": "CCOc1ccc(N(C)c2ccc(/C=C3/SC(=S)NC3=O)cc2)cc1", "Potency": "inconclusive: 14.1 µM [inhibitor, full curve]"}, {"smiles": "O=C(NCc1cccn1Cc1ccccc1)Nc1ccc(Br)cc1F", "Potency": "inconclusive: 89.1 µM [inhibitor, single point]"}, {"smiles": "Cc1cccc(NC2=NCC(=O)N2Cc2cccs2)c1", "Potency": "inactive"}, {"smiles": "S=C(NNc1ccnc2cc(Cl)ccc12)Nc1ccc(Cl)cc1Cl", "Potency": "inconclusive: 3.98 µM [inhibitor, full curve, poor fit]"}, {"smiles": "O=C1CSC(=S)N1N=Cc1ccc(Cl)s1", "Potency": "inconclusive: 70.8 µM [inhibitor, single point]"}, {"smiles": "CCOC(=O)c1c(C)c(-c2ccccc2)n(CC(=O)NCc2cccc(OC)c2)c1C", "Potency": "inactive"}, {"smiles": "Cc1cccc(N2CCN(Cc3ccc([N+](=O)[O-])o3)CC2)c1C", "Potency": "inconclusive: 70.8 µM [inhibitor, partial curve]"}, {"smiles": "O=[N+]([O-])c1ccc(NN=Cc2ccco2)nc1", "Potency": "inconclusive: 79.4 µM [inhibitor, single point]"}, {"smiles": "Cc1cc(C(C)(C)C)ccc1OCCN(C)C", "Potency": "inconclusive: 11.2 µM [inhibitor, full curve]"}, {"smiles": "CCOC(=O)c1c(C)[nH]c(C)c1S(=O)(=O)NCc1cc(C)ccc1C", "Potency": "inactive"}, {"smiles": "CCOC(=O)c1cnc2cc(C(F)(F)F)ccc2c1N1CCN(c2cccc(Cl)c2)CC1", "Potency": "inactive"}, {"smiles": "CN(C)c1ccc(C(=O)n2nnc3ccccc32)cc1", "Potency": "inactive"}, {"smiles": "COc1ccc(/C=N/n2cnc3c([nH]c4ccc(F)cc43)c2=O)cc1CN1CCCC1", "Potency": "inconclusive: 70.8 µM [inhibitor, single point]"}, {"smiles": "CC(C)N(C(=O)CSc1nnc(CN2CCCCCC2=O)n1-c1ccccn1)C(C)C", "Potency": "inconclusive: 89.1 µM [inhibitor, single point]"}, {"smiles": "COc1ccc(C2CC(=O)C3=C(C2)NC(C)=C(C#N)C3c2ccc(N(C)C)cc2)cc1", "note": "(stereo unspecified)", "Potency": "inconclusive: 25.1 µM [inhibitor, single point]"}, {"smiles": "CCN1CCN(C(C)C(=O)Nc2c(C)n(C)n(-c3ccccc3)c2=O)CC1", "note": "(stereo unspecified)", "Potency": "inconclusive: 6.31 µM [inhibitor, partial curve, poor fit]"}, {"smiles": "CCCC(C)C(=O)Nc1cc(S(=O)(=O)N2CCCCC2)ccc1N1CCOCC1", "note": "(stereo unspecified)", "Potency": "inactive"}, {"smiles": "O=C(CNCc1ccccc1Cl)Nc1ccc2c(c1)OCCO2", "Potency": "inconclusive: 15.8 µM [inhibitor, partial curve, poor fit]"}, {"smiles": "COc1ccc(OC)c(CN2CCN(C(=O)CN3C(=O)NC4(CCCC4)C3=O)CC2)c1", "Potency": "inactive"}, {"smiles": "O=C(c1ccccc1)c1ccc(OCC(O)CNCc2ccc(Cl)cc2)cc1", "note": "(stereo unspecified)", "Potency": "inconclusive: 56.2 µM [inhibitor, single point]"}, {"smiles": "Cc1ccc(NC(=O)CCCNC(=O)c2ccc(Cl)cc2)nc1", "Potency": "inactive"}, {"smiles": "COc1cccc(NS(=O)(=O)c2ccc3c(c2)C2C=CCC2C(c2ccc(C(=O)O)cc2)N3)c1", "note": "(stereo unspecified)", "Potency": "inconclusive: 50.1 µM [inhibitor, partial curve, poor fit]"}, {"smiles": "C/C(=N\\Nc1nc2ccccc2c(=O)n1O)c1ccco1", "Potency": "inconclusive: 50.1 µM [inhibitor, partial curve, poor fit]"}, {"smiles": "CCn1cnc2sc(C(=O)N(Cc3ccc(N(C)C)cc3)Cc3ccco3)c(C)c2c1=O", "Potency": "active: 35.5 µM"}, {"smiles": "COc1ccc(/C=C2/C(=O)N(c3ccccc3)N=C2C)c(OC)c1", "Potency": "active: 12.6 µM"}, {"smiles": "CC(=O)Nc1ccc(C2=NNC(=Nc3cccc(S(=O)(=O)N(C)C)c3)SC2)cc1", "Potency": "inconclusive: 17.8 µM [inhibitor, full curve, poor fit]"}]}]}
